Sequences with one replicate were seen in a single cluster, so their values are uncertain.
test system: ATP; experiment: switch fluorescence ratio, 500 uM ATP over buffer (Cy3 cluster intensity, sum of 5 cycles each) (fold (ratio)); higher = stronger signal-on switching upon ATP binding; sequences stand for … in TCGTCGGCAGCGTCAGATGTGTATAAGAGACAGTTTTTTTTTTTTTTTTTTTTTTTTT…TC; details: aptamer strand: ATP DNA aptamer (quencher-CACCTGGGGGAGTATTGCGGAGGAAGG + anchor), 100 nM annealed; ATP concentration: 500 uM; one replicate
How it was run: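 Imaging in selection buffer was followed by imaging after 15 min with 500 uM ATP at 22 °C, for Cy3-labelled switching-strand clusters annealed to 100 nM quencher-labelled ATP aptamer on a modified Illumina MiSeq flow-cell. Five of these buffer/ATP cycles ran, separated by NaOH stripping and re-annealing. The fluorescence ratio per cluster is summed target-cycle over summed buffer-cycle Cy3 intensity, averaged per switch-domain sequence; clusters outside 100-1000 RFU were removed.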
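Note: ATP exposure 15 min at 22 °C before imaging.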

Sequence	switch fluorescence ratio
TTAAGACAGC	1.02
TTAAGACGAC	1.28
TTAAGACGAT	0.98
TTAAGAGAGA	1.02
TTAAGAGGT	1.02
TTAAGCCTGA	1.02
TTAAGGCAAC	0.993
TTAAGTGATG	0.999
TTAAGTTAAG	0.997
TTAATACCCC	1.14
TTAATATCGT	0.986
TTAATATCTC	1.16
TTAATCAACG	1.04
TTAATCGCAA	3.17
TTAATCTATT	1.05
TTAATCTTGG	0.972
TTAATGTC	1.08
TTAATTCTCC	0.986
TTAATTGTCC	0.979
TTAATTTAGA	0.936
TTAATTTGCG	1.05
TTACAAGCAG	1.03

Sequence	switch fluorescence ratio
TTACAATAG	1.06
TTACAATCGG	1.01
TTACACTATT	1.13
TTACAGAGGG	1.04
TTACAGGGTT	1.08
TTACAGTTAG	1.03
TTACATACTA	1.37
TTACATCATA	1.03
TTACATCGAG	1.03
TTACATGGGA	0.998
TTACCATGCC	1.1
TTACCCAAAG	1.03
TTACCCCAT	1.98
TTACCGGTGT	1.03
TTACCGTATG	1.02
TTACCGTTTG	1.02
TTACCTGAGC	1.11
TTACGACTTT	1.04
TTACGCCAGG	1.54
TTACGCGGAT	0.993
TTACGCGTGG	1.06
TTACGCTG	1.04

Sequence	switch fluorescence ratio
TTACGTACGC	1.54
TTACGTATG	1.01
TTACGTGTCC	1.05
TTACGTTCCG	1.02
TTACGTTGCA	0.993
TTACTACGTT	1
TTACTATAGC	1.08
TTACTCCACG	1.47
TTACTCCGAC	4.77
TTACTCGCAC	2.17
TTACTCTCCG	1.14
TTACTCTCCT	1.14
TTACTGATA	1.02
TTACTTGTC	1.25
TTAGAATATT	1.01
TTAGACGTTT	1.05
TTAGAGCTTA	1.16
TTAGATAAA	0.975
TTAGATACAG	1.03
TTAGATGGGC	1.02
TTAGATTCTG	1.01
TTAGCCGGCA	0.991

Sequence	switch fluorescence ratio
TTAGCCGGGG	1.01
TTAGCTGGCT	1.04
TTAGCTGGGG	1.01
TTAGCTTCTG	0.944
TTAGGAGG	0.995
TTAGGTACAC	1.03
TTAGGTCTGG	0.997
TTAGTACTAC	1.01
TTAGTAGCAT	1.04
TTAGTATAGA	0.997
TTAGTCTAAT	0.99
TTAGTGAGTT	1.02
TTAGTGGGT	0.988
TTAGTGGTGT	0.97
TTAGTTAGGC	1.01
TTAGTTCTCT	1.04
TTAGTTTCAT	1.08
TTAGTTTGAT	0.985
TTATAAACAA	1.02
